About 2,200 (0.71%) of roughly 310,000 compounds showed an effect of 50% or more. The effect is printed as a negative number. The list shows a part of the results.
Molecular target: human ether-à-go-go-related gene (hERG) potassium channel (human, UniProt Q12809)
Assay: primary screen, population patch clamp on CHO cells stably expressing hERG

Sequence of human ether-à-go-go-related gene (hERG) potassium channel (Q12809 whole entry, looked up): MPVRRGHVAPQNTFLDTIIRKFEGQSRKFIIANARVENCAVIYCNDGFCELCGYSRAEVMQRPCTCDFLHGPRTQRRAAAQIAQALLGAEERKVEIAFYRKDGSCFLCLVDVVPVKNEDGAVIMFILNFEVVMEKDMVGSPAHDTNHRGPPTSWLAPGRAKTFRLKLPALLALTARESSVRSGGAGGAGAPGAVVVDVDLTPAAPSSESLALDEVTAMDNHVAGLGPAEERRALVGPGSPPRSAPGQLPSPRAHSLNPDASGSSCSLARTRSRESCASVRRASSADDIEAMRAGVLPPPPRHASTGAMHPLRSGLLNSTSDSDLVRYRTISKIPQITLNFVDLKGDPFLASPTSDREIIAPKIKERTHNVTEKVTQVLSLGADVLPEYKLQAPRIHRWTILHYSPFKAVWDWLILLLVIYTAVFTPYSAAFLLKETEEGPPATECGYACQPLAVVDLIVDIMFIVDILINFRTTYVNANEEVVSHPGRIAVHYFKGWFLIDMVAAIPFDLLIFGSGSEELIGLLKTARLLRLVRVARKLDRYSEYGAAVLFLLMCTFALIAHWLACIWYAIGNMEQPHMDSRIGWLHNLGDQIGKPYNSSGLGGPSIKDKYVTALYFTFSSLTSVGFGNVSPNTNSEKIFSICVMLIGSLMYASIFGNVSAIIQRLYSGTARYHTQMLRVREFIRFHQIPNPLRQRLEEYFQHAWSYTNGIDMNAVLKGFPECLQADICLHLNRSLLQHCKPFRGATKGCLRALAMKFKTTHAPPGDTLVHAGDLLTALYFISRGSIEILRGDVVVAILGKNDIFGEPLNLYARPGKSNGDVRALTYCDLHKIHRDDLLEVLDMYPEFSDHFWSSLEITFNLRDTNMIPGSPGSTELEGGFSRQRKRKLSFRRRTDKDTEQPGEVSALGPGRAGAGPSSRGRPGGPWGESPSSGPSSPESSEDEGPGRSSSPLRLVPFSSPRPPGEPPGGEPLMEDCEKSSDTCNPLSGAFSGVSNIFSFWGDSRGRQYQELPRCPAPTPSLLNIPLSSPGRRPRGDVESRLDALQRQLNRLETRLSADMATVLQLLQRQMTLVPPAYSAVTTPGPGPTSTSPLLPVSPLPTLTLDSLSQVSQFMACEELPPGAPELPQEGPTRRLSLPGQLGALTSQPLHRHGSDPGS

| SMILES | hERG current change (%, negative = inhibition) at 1uM [%] |
| --- | --- |
| Cc1cc(C)c(/C=N/n2c(C)cc(C)c(C#N)c2=O)c(C)c1 | 5.19 |
| Cc1cccc(N2CCN(c3nc(C)cc(C)c3C#N)CC2C)c1.Cl (stereo not shown) | 11.4 |
| O=C(Nc1ccc(F)cc1)Nc1nnc(-c2ccco2)s1 | 18.1 |
| CCOc1ccc(NC(=O)CSc2nc3ccccc3c(=O)n2CCCC(=O)N2CCCC2)cc1 | -13.1 |
| CC1=C(C(=O)OCC2CCCO2)C(c2coc3ccc(Cl)cc3c2=O)C2=C(CCCC2=O)N1 (stereo not shown) | 6.76 |
| CCCCOc1ccc(N2C(=O)CC(N(O)c3ccccc3)C2=O)cc1 (stereo not shown) | 12 |
| CCOC(=O)C1(CCOC)CCN(Cc2nc(-c3cccs3)oc2C)CC1 | -4.18 |
| O=C(c1cc(-c2ccccc2Cl)on1)N1CCN(C(=O)c2ccco2)CC1 | -1.67 |
| O=C(NN1C(=O)/C(=C\c2ccc(O)c([N+](=O)[O-])c2)SC1=S)c1ccccc1Cl | 15.8 |
| CC(=O)Nc1cc([As](=O)(O)O)ccc1O | 15.9 |
| O=C(NC(=S)N1CCc2ccccc21)c1ccccc1Cl | 6.46 |
| CCOc1ccc2[nH]c(C)c(CN3CCCCC3)c(=O)c2c1 | 2.6 |
| O=C(Cc1ccc(Cl)c(Cl)c1)Nc1cccc(S(=O)(=O)N2CCOCC2)c1 | 8.57 |
| Cc1nn(-c2ccccc2)c(C)c1NC(=O)COc1ccc(C#N)cc1 | -5.39 |
| COc1cccc(/C=N/Nc2ncnc3c2ncn3Cc2ccccc2)c1O | 10.7 |
| Cc1cc2nc3c(c(=O)n2[nH]1)CCCC3 | 7.48 |
| COC(=O)c1ccc(CSc2nc3ccccc3c(=O)n2-c2ccccc2)o1 | 9.17 |
| CCOC(=O)N1CCN(C(=O)CN(c2ccc(Oc3ccccc3)cc2)S(C)(=O)=O)CC1 | 4.21 |
| CC(C)n1cnc2cc(NC(=O)c3ccco3)ccc21 | 14.9 |
| O=C(Nc1ncccc1O)c1ccc(Cl)c(S(=O)(=O)N2CCCCC2)c1 | 5.18 |

| SMILES | hERG current change (%, negative = inhibition) at 1uM [%] |
| --- | --- |
| CCNc1nc(NC(C)C)nc(NS(=O)(=O)c2ccc(Cl)cc2)n1 | 13 |
| CCOc1ccc2nc(NC(=O)Nc3cccs3)sc2c1 | 13.8 |
| Cc1ccc(NC(=O)c2cc(S(=O)(=O)N3CCCC3)cn2C)cc1C | 9.68 |
| Fc1ccc(C(CCNCc2cccs2)c2ccco2)cc1 (stereo not shown) | -28 |
| O=C(NCC1CCCO1)c1ccc([N+](=O)[O-])o1 (stereo not shown) | -4.31 |
| Cc1ccc(C2C=C(c3ccc4c(c3)OCO4)Nc3ncnn32)cc1 (stereo not shown) | 6.96 |
| COc1ccc(NC(=O)N2CCC3(CC2)OCCO3)c(OC)c1 | 4.56 |
| Cc1c(C)c2ccc(OC(C)C(=O)N3CC[C@@]4(O)CCCC[C@H]4C3)cc2oc1=O (stereo partly shown) | 2.7 |
| CCS(=O)(=O)N1CCCC(C(=O)NCc2cccnc2)C1 (stereo not shown) | 14.3 |
| [O-]/[N+](=C/c1ccco1)c1ccccc1 | 10.7 |
| NS(=O)(=O)c1ccc(CCNC(=O)CSc2nc3ccccc3c(=O)n2CCN2CCOCC2)cc1 | 19 |
| Cc1ccc(S(=O)(=O)N2CCN(C(=O)c3cccc(F)c3)CC2)cc1 | 0.222 |
| COc1ccc(OCC(=O)NNC(=O)c2c(-c3ccccc3Cl)noc2C)cc1 | 13.6 |
| Cc1cc2nc(C)n(CCCNC(=O)Nc3ccc(F)cc3)c2cc1C | -4.65 |
| CC(=O)Nc1ccc(NC(=O)CN2CCN(c3cccc(C(F)(F)F)c3)CC2)cc1 | 1.61 |
| CC(=O)NC1C(=O)N(CC(C)C)c2ccccc21 (stereo not shown) | 8.77 |
| COc1ccc(OCC(O)CNC(=O)Nc2ccccc2)cc1 (stereo not shown) | 2.47 |
| O=C(Nc1nnc(SCc2cccnc2)s1)C1CC(=O)N(c2ccc(F)cc2)C1 (stereo not shown) | 10.1 |
| CCOc1ccccc1C(=O)N/N=C/c1ccoc1 | 15.4 |
| COc1ccccc1N1CCN(C2CC(=O)N(c3ccccc3)C2=O)CC1 (stereo not shown) | 17.1 |

| SMILES | hERG current change (%, negative = inhibition) at 1uM [%] |
| --- | --- |
| Cc1cc(Nc2ccccc2N2CCOCC2)n2ncnc2n1 | -4.73 |
| CCOC(=O)C1(Cc2cccc(OC)c2)CCCN(C(=O)CCN2CCCO2)C1 (stereo not shown) | 4.85 |
| Cl.O=C(CCN1CCCCCC1)c1ccccc1 | 0.428 |
| Cc1cc(Br)ccc1SCC(=O)OCC(=O)NC(C)c1ccccc1 (stereo not shown) | -4.48 |
| O=P1(O)C=C(c2ccccc2)NC(c2ccccc2)=C1 | 3.18 |
| COc1ccc(COCC(O)CN2CCC(C(N)=O)CC2)cc1 (stereo not shown) | 11.7 |
| COCCNC(=O)c1n[nH]c2ccccc12 | 7.52 |
| O=c1c([N+](=O)[O-])c[nH]c2ccccc12 | 12.5 |
| Cc1c(NC(=S)NC(=O)c2ccco2)cccc1-c1nc2ncccc2o1 | 8.18 |
| CC(=O)c1cc(C(=O)NC2CCCc3c2cnn3-c2cc(C)cc(C)c2)[nH]n1 (stereo not shown) | -4.3 |
| Cc1ccc(/C(N)=N/OC(=O)c2ccc(F)cc2)cc1 | 13.8 |
| Cc1ccccc1NC(=O)NCCc1ccc(Cl)cc1 | 8.42 |
| COc1ccccc1N1CCN(C(=O)C(OC(C)=O)c2ccccc2)CC1 (stereo not shown) | 11.8 |
| COc1ccc(-c2nc(NC(=O)c3ccc(OCC(=O)N4CCOCC4)c(OC)c3)sc2C)cc1 | 8.7 |
| O=[N+]([O-])c1ccc(N=Nc2ccc(O)cc2O)cc1 | 14.1 |
| CCCCN(C(=O)c1cccc(-n2cccc2)c1)c1c(N)n(Cc2ccccc2)c(=O)[nH]c1=O | 0.161 |
| COc1ccc(CNC(=O)c2ccc3c(c2)N(C)CCS3)cc1 | 3.7 |
| Cc1ccc(-n2nc3c(=O)n(C(C)C(=O)NCc4ccco4)nc(C)c3c2C)cc1 (stereo not shown) | 12.8 |

Reference: PMC4336329 (PLoS ONE, 2015)
